In PubChem BioAssay AID588855 (National Center for Advancing Translational Sciences (NCATS), 2011):
Where “and” joins values, the source holds several entries; their conditions need not be identical. Equal entries are not always repeated. The campaign covered roughly 410,000 compounds. About 5,000 (1.2%) were called active. Inconclusive results, whose numbers are uncertain, are shown with a selection of clear calls. The call rests on the fitted dose curve; in most records, active means well fitted inhibition curve with a large enough effect; inconclusive means small, poorly fitted or top-dose-only effect; inactive means no such curve, though single readings can be large or run the other way. Potencies beside an inconclusive call are fits to weak or partial responses and may not hold up.
On the % scale 0 is the no-effect control and ±100 the full control effect; potency means the concentration at half of the fitted maximal effect; tags describe the fitted curve by direction and shape.

Test: qHTS for Inhibitors of TGF-b; further: nearly all actives have a fitted effect of over 65% in size
Conditions: HepG2 CAGA-GFP TGF-b/SMAD3 reporter, GFP fluorescence, 18 h, TGF-beta stimulated, 500 pg/mL final; series mostly up to 46.1 µM; activity, negative = inhibition: at the top concentration
Outline: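 First, reporter cells (HEPG2 CAGA-GFP) rested 2 h at 37 degrees C. Next, compounds were pinned in and TGF-beta added to 500 pg/mL final. After 18 h, GFP was imaged per cell and summed per well.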
For `COc1cccc(CNC(=O)CN2C(=O)N(c3ccc(C)cc3C)S(=O)(=O)c3ccccc32)c1OC`, the Potency was inconclusive: 20 µM [inhibitor, partial curve, poor fit].
For `COc1ccccc1Cc1c(-c2ccc(F)cc2)nc2c(C)cc(Br)cn12`, the Potency was inconclusive: 22.4 µM [inhibitor, single point].
With `COc1ccc(N(C)S(=O)(=O)c2cccc(C(=O)N3CCN(Cc4ccc5c(c4)OCO5)CC3)c2)cc1` the Potency was inconclusive: 35.5 µM [inhibitor, single point].
With `COc1ccc(C)cc1-n1cnc2cc(C(=O)NC3CCCCCC3)ccc21` the Potency was inconclusive: 35.5 µM [inhibitor, single point].
For `CCOC(=O)c1c(C)[nH]c(C)c1S(=O)(=O)N(C)CC(=O)NCc1ccc(Cl)cc1`, the Potency was inconclusive: 35.5 µM [inhibitor, single point].
For `Cc1ccc(F)c(C2C3C=CCC(C)C3C(=O)N2Cc2ccccc2)c1` (stereo not given), the Potency was inconclusive: 35.5 µM [inhibitor, single point].
With `CN(Cc1ccccc1)C(=O)CN1C(=O)NC2(CCCc3sccc32)C1=O` (stereo not given) the “activity, negative = inhibition” value was inactive: 4.23%.
In the case of `O=C(NCC1(c2ccccc2)CCCC1)C(=O)NCC1(c2ccccc2)CCCC1`, the “activity, negative = inhibition” value is reported as inactive: 5.66%.
In the case of `Cc1ccc2c(c1C)OC(=O)CC2(C)C`, the Potency is reported as inconclusive: 6.31 µM [inhibitor, single point].
With `CCN1CCN(Cc2ccc(NC(=O)c3cc(NC(=O)c4ccno4)cc(OC)c3)cc2C(F)(F)F)CC1` the Potency was inconclusive: 12.6 µM [inhibitor, single point] and inconclusive: 28.2 µM [inhibitor, single point].
In the case of `CC1CN(C(=O)CCC(=O)N2CCCCC2)c2cc(Cl)ccc2O1` (stereo not given), the “activity, negative = inhibition” value is reported as inactive: -3.55%.
For `Cc1cccc(C)c1N1CCN(c2nc(N(C)C)oc(=O)c2C#N)CC1`, the Potency was inconclusive: 2.51 µM [inhibitor, partial curve, poor fit].
With `Cc1cccc(Nc2c(-c3ccsc3)nc3nc(C)cc(C)n23)c1` the Potency was inconclusive: 35.5 µM [inhibitor, single point].
In the case of `COc1ccccc1NC(=O)Nc1ccnn1C1CCN(C(=O)C2CCOC2)CC1` (stereo not given), the “activity, negative = inhibition” value is reported as inactive: -2.9%.
In the case of `Cc1ccc2c(c1)C1(C(=O)N2)N2CCCC2C(C(=O)c2ccc3ccccc3c2)C12C(=O)Nc1ccccc12` (stereo not given), the Potency is reported as inconclusive: 35.5 µM [inhibitor, single point].
For `Cc1ccc(NS(=O)(=O)c2ccc(Cl)c(C(=O)Nc3cccc(C(=O)O)c3)c2)cc1`, the “activity, negative = inhibition” value was inactive: -3.7%.
For `COc1cc(C2OCC3C(c4ccc(OC5OC(CO)C(O)C(O)C5O)c(OC)c4)OCC23)ccc1O` (stereo not given), the “activity, negative = inhibition” value was inactive: 0.996%.
With `O=S(=O)(NCC(Nc1ccc(Cl)cc1)c1ccccc1)c1ccc(Cl)cc1` (stereo not given) the Potency was active: 12.6 µM.
In the case of `CCCCN(CCCC)c1ccc(C=Nc2ccc(/C=C/c3ccnc4ccccc34)cc2)cc1C`, the “activity, negative = inhibition” value is reported as inactive: -6.94%.
For `O=c1c2ccccc2n(Cc2c(F)cccc2Cl)c(=O)n1CCc1ccccc1`, the “activity, negative = inhibition” value was inactive: -0.676%.
In the case of `CCN(CC)C(=O)Cn1nc(-c2ccncc2)nc1SCC(=O)Nc1ccc(OC)cc1`, the Potency is reported as inconclusive: 35.5 µM [inhibitor, single point].
In the case of `COc1ccccc1CNC(=O)[C@@H](NC(=O)C1CCN(C(=O)[C@@H]2CCCN2C(=O)OC(C)(C)C)CC1)C(C)C`, the “activity, negative = inhibition” value is reported as inactive: 12%.
With `O=C(NNC(=S)Nc1cccc(C(F)(F)F)c1)c1ccc(Cl)cc1Cl` the Potency was inconclusive: 17.8 µM [inhibitor, single point].
In the case of `Cc1ccc(NC(=O)C2C(c3ccccc3)C=CC(c3ccccc3)C2C(=O)O)cc1` (stereo not given), the “activity, negative = inhibition” value is reported as inactive: -7.54%.
For `O=S(=O)(Nc1ccccc1Cl)c1ccc2[nH]c(=S)oc2c1`, the Potency was inconclusive: 20 µM [inhibitor, single point].
In the case of `O=c1oc2ccccc2c(NC2CCCCC2)c1NS(=O)(=O)c1ccc(Cl)cc1`, the Potency is reported as inconclusive: 35.5 µM [inhibitor, single point].
In the case of `Cc1ccc(Cl)cc1-n1c(SCC(=O)NCCC2=CCCCC2)nc2n[nH]c(C)c2c1=N`, the Potency is reported as inconclusive: 25.1 µM [inhibitor, single point].
In the case of `Cc1cc(C)cc(NC(=O)C2CCCN2S(=O)(=O)c2ccc3nc(-c4ccccc4)[nH]c3c2)c1` (stereo not given), the Potency is reported as inconclusive: 17.8 µM [inhibitor, single point].
For `CC1(c2ccc(OC(F)F)cc2)NC(=O)N(CC(=O)Nc2ccc(N3CCCCC3)cc2)C1=O` (stereo not given), the “activity, negative = inhibition” value was inactive: -10.1%.
In the case of `CCNC(=S)Nc1cc(-c2ccc(Cl)cc2)[nH]n1`, the Potency is reported as inconclusive: 3.98 µM [inhibitor, full curve].
In the case of `COC(=O)c1sc(-c2ccccc2)cc1NC(=O)Nc1ccc(F)cc1`, the Potency is reported as inconclusive: 35.5 µM [inhibitor, partial curve, poor fit].
With `NS(=O)(=O)c1ccc(N2N=C(c3ccccc3)CC2c2cccc(Br)c2)cc1` (stereo not given) the Potency was inconclusive: 22.4 µM [inhibitor, single point].
In the case of `O=C(COc1ccc(/C=N/NC(=O)c2cc3ccccc3o2)cc1Br)Nc1ccccc1`, the Potency is reported as active: 3.55 µM.
For `COc1ccc(C(CC(=O)NCc2ccc(Cl)cc2)N2Cc3ccccc3C2=O)cc1OC` (stereo not given), the “activity, negative = inhibition” value was inactive: -11.9%.
With `COc1cccc(-c2nc(S(=O)(=O)c3ccccc3)c(N3CCOCC3)o2)c1` the Potency was inconclusive: 35.5 µM [inhibitor, single point].
For `S=C(Nc1cccnc1)NC1CCCCCCC1`, the “activity, negative = inhibition” value was inactive: -4.83%.
For `CCn1nnnc1SCC(=O)Nc1cc(OC)cc(OC)c1`, the Potency was inconclusive: 3.16 µM [inhibitor, single point].
In the case of `Oc1c(CN2CCCCC2)ccc2cccnc12`, the Potency is reported as inconclusive: 12.6 µM [inhibitor, single point].
With `COc1cc2oc(=O)cc(-c3cccc(-c4cccc(C)c4)c3)c2c(OC)c1OC` the Potency was inconclusive: 35.5 µM [inhibitor, single point].
For `COc1ccc(-c2nn(-c3ccccc3)cc2/C=N/N=C(N)N)cc1OC`, the Potency was inconclusive: 35.5 µM [inhibitor, single point].
In the case of `COc1ccccc1NC(=O)Cn1ccn(-c2cccc3ccccc23)c(=O)c1=O`, the “activity, negative = inhibition” value is reported as inactive: -2.93%.
For `Cc1nc(C(=O)NCCC(C)C)sc1C1(C)CC(c2cccc([N+](=O)[O-])c2)=NO1` (stereo not given), the Potency was inconclusive: 22.4 µM [inhibitor, partial curve, poor fit].
In the case of `CC(NC(=O)C1CCN(CCOc2ccc(Cl)cc2)CC1)c1cccc2ccccc12` (stereo not given), the Potency is reported as active: 6.31 µM.
For `COc1ccc(C(CCNCc2ccc(OC(C)C)cc2)c2ccccc2OC)cc1` (stereo not given), the Potency was active: 14.1 µM.
In the case of `CC(=O)NC(c1ccc2ccccc2c1)c1ccc2cccnc2c1O` (stereo not given), the Potency is reported as inconclusive: 4.47 µM [inhibitor, full curve, poor fit].
For `CCOC(=O)c1c(CN(C)C)n(C)c2c(O)c(N=NC(N)=O)c3ccc(Br)cc3c12`, the Potency was inconclusive: 17.8 µM [inhibitor, partial curve, poor fit].
With `O=C(Nc1nc2ccccc2n1Cc1ccccc1)c1ccco1` the “activity, negative = inhibition” value was inactive: -29.5%.
With `COc1ccc(C(=O)N2CCC(C)(C(=O)O)C2)c(OC)c1` (stereo not given) the “activity, negative = inhibition” value was inactive: -1.09%.
For `N#Cc1c(N)n(CCOC(=O)c2cccc(Br)c2)c2nc3ccccc3nc12`, the Potency was inconclusive: 17.8 µM [inhibitor, single point].
In the case of `O=C(CSC1=NCCN1)Nc1cccc([N+](=O)[O-])c1`, the “activity, negative = inhibition” value is reported as inactive: -19.8%.
With `CC1(C(=O)NC(=S)N(CCC#N)c2ccccc2)CC1(Cl)Cl` (stereo not given) the “activity, negative = inhibition” value was inactive: -19.4%.
In the case of `O=C(NCCn1cc(SCc2ccc(Br)cc2)c2ccccc21)c1cccs1`, the Potency is reported as inconclusive: 14.1 µM [inhibitor, single point].
For `CCCCn1nnc(NC(=S)NC(=O)c2cccs2)n1`, the Potency was inconclusive: 35.5 µM [inhibitor, single point].
With `CCOC(=O)N1CCN(c2c(NCc3ccc(Cl)cc3)c(=O)c2=O)CC1` the Potency was inconclusive: 2.51 µM [inhibitor, full curve, poor fit].
For `Oc1ccc(NC(=S)N=Nc2c(O)[nH]c3ccc(Br)cc23)cc1`, the Potency was inconclusive: 28.2 µM [inhibitor, single point].
In the case of `NC(=O)C1=C(c2ccccc2)c2ccccc2C1=O`, the Potency is reported as inconclusive: 35.5 µM [inhibitor, single point].
In the case of `Cc1ccc2c(c1)c1c(n2CC(O)CNC2CCCC2)CCCC1` (stereo not given), the Potency is reported as inconclusive: 35.5 µM [inhibitor, single point].
With `COc1ccc(NC(=O)CN2C(=O)COc3ccc(C)cc32)cc1` the “activity, negative = inhibition” value was inactive: 0.197%.
For `CCCNC(=O)c1cc(S(=O)(=O)N2CCc3ccccc32)cn1C`, the Potency was inconclusive: 35.5 µM [inhibitor, single point].
With `O=C(O)C(Cc1ccc(F)cc1)c1ccccc1` (stereo not given) the “activity, negative = inhibition” value was inactive: 6.65%.
For `CCCS(=O)(=O)NC(=O)C1(C)CCCN(C(=O)c2ccccc2Br)C1` (stereo not given), the “activity, negative = inhibition” value was inactive: 1.56%.
For `COc1ccc(S(=O)(=O)Nc2ccc(F)c(F)c2)cc1Cl`, the Potency was active: 10 µM.
With `CCOCCn1c(-c2ccc(OC)cc2)nc2ccccc21` the “activity, negative = inhibition” value was inactive: 12.4%.
With `Cc1ccc(CNC(=O)CSc2nnc(C)c3c(C)n(-c4ccccc4)nc23)cc1` the Potency was inconclusive: 35.5 µM [inhibitor, single point].
For `O=C(O)CC(NC(=O)CCC1CCCCC1)c1cc([N+](=O)[O-])ccc1Cl` (stereo not given), the Potency was inconclusive: 35.5 µM [inhibitor, partial curve, poor fit].
For `CCC(c1nnnn1C1CCCC1)N1CCN(c2cccc(OC)c2)CC1` (stereo not given), the “activity, negative = inhibition” value was inactive: 22.2%.
For `COc1ccc(CNC(=O)CN(CC2CCCO2)C(=O)CNS(=O)(=O)c2ccc(F)cc2)cc1` (stereo not given), the “activity, negative = inhibition” value was inactive: -23.7%.
For `CCN(CC)CCCC(C)Nc1nccc2c(Cl)cccc12` (stereo not given), the Potency was inconclusive: 12.6 µM [inhibitor, single point].
In the case of `O=C(Oc1cccc2cccnc12)c1cccs1`, the Potency is reported as inconclusive: 35.5 µM [inhibitor, single point].
For `COc1ccc(/C=N\Nc2ccc([N+](=O)[O-])cc2[N+](=O)[O-])c(C(=O)O)c1OC`, the Potency was inconclusive: 10 µM [inhibitor, partial curve, poor fit].
